# Some of the results follow. Values were computed here from the reads of four pooled replicates and scatter widely.
# Biological target: T1, Pho4 (S. cerevisiae) (UniProt P07270)
# T1 sequence: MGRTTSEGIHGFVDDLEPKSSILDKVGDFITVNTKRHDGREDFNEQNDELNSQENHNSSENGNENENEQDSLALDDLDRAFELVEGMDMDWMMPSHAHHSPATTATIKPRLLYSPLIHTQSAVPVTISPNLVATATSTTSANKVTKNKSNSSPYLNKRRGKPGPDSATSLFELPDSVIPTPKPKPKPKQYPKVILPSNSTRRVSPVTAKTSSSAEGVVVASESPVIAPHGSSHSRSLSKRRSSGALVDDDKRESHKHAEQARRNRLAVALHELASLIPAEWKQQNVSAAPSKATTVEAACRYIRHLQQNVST
# Assay: relative binding free energy (BET-seq); higher = weaker binding
# Details: reference: library average
row,Sequence,relative binding free energy [kcal/mol]
1,GGGCTCACGTGAGAGT,0.28
2,AGGATCACGTGCGTTG,0.07
3,GGGTACACGTGAAGAG,0.12
4,GTGGTCACGTGATAAG,0.18
5,TGATGCACGTGGTATA,-0.14
6,GGGATCACGTGTGCGG,0.12
7,GGATCCACGTGGTGGA,0.06
8,GAAGGCACGTGAGGAG,0.21
9,GATTTCACGTGAAAGT,0.34
10,GTCCTCACGTGGAGGG,0.27
11,GATGGCACGTGATCTT,0.04
12,TTATTCACGTGAAGGA,0.28
13,AAGTGCACGTGTGGAA,0.06
14,TGTCTCACGTGTATGC,0.25
15,CAGGTCACGTGAGTGT,0.24
16,AAGGGCACGTGGATGT,-0.17
17,GTGAGCACGTGCGGGG,-0.15
18,TAATGCACGTGTAAGT,0.03
19,GGGGTCACGTGAAATA,0.3
20,CTGGGCACGTGGGTCA,-0.37
21,AGTTACACGTGGTTGG,0.11
22,GATTCCACGTGTGGGT,0.31
23,TATTACACGTGGGAGG,0.02
24,TTGGTCACGTGGACTG,0.04
25,GCTTTCACGTGGCGGG,0.15

row,Sequence,relative binding free energy [kcal/mol]
1,CTTTACACGTGGGGTA,-0.05
2,TGATTCACGTGGAGTA,0.21
3,AGATGCACGTGGTTAG,-0.07
4,ATTGGCACGTGTGGGG,0
5,GGGGCCACGTGTGAGA,0.06
6,GAGGCCACGTGGTGGC,0.02
7,GTTAGCACGTGCGGGC,0.16
8,TGTGGCACGTGAGATA,0.14
9,GTAGTCACGTGTTAGA,0.12
10,GATGTCACGTGGTAAT,0.13
11,GCTAGCACGTGGTTAG,-0.08
12,GTGGTCACGTGGTTAA,0.19
13,TCTGGCACGTGTTGAA,-0.11
14,GGAGGCACGTGAGCAG,0.02
15,TATATCACGTGTGAAT,0.13
16,GGTGCCACGTGTCTGG,-0.01
17,TTTGCCACGTGTGAGA,-0.04
18,TGGGTCACGTGACAAT,0.21
19,ATATGCACGTGTGTGC,-0.13
20,GTGGGCACGTGTGCTC,-0.05
21,TTTAGCACGTGAGGAA,0.18
22,AGAGGCACGTGTATTG,-0.22
23,TTGGACACGTGGGCAG,-0.18
24,GAGTTCACGTGGCTTA,0.23
25,TGCGGCACGTGGTTGT,-0.17

row,Sequence,relative binding free energy [kcal/mol]
1,TGGTACACGTGACAGT,0.08
2,TCGTTCACGTGCTTGG,0.31
3,CTTTTCACGTGGTTTT,0.33
4,TCGTGCACGTGGGGTA,-0.13
5,ATGGACACGTGTGTTT,0.03
6,TATTTCACGTGGGCGG,0.11
7,AATGGCACGTGGAGTG,0.02
8,TTGGGCACGTGCCTAG,-0.2
9,GTCGTCACGTGCGGTA,0.24
10,AGGAACACGTGAGGAT,0.44
11,GGGTACACGTGTCGGT,0.21
12,ATAGTCACGTGGCGTA,0
13,CTAGTCACGTGTGGGA,0.15
14,TTAGACACGTGGATTT,0.22
15,TGATGCACGTGAGATA,0.19
16,ATGTCCACGTGTTGTA,-0.06
17,TAAGTCACGTGTGATA,0.11
18,GTGTTCACGTGCTGCA,0.37
19,ATGTACACGTGTGTTT,0.18
20,CCGTTCACGTGGTGGT,0.12
21,GGATGCACGTGTCATA,0.11
22,TACAGCACGTGCGGGG,-0.14
23,TTAAACACGTGAAGGG,0.28
24,ATTATCACGTGCGTTA,0.12
25,GTGAACACGTGGTAGG,-0.1

row,Sequence,relative binding free energy [kcal/mol]
1,AATGGCACGTGCGGGA,-0.18
2,GGATGCACGTGGGAGG,-0.15
3,TGGTTCACGTGAAGAT,0.32
4,TTAATCACGTGTAGTC,0.07
5,GCTAGCACGTGCGTGG,-0.12
6,CGTGGCACGTGTTGTG,-0.07
7,TTGAGCACGTGTTTAC,-0.03
8,ATTTCCACGTGTGGGC,0.17
9,TATGGCACGTGAGTTC,0.12
10,ATGGGCACGTGGTCGT,-0.33
11,CGTGGCACGTGCGGCG,-0.19
12,GAAGACACGTGTGGGA,0.03
13,GATTGCACGTGACGTG,0.2
14,ACGTGCACGTGGGTTC,-0.12
15,TGTCGCACGTGTTTTA,0.06
16,GTTCACACGTGGTGAT,0.07
17,TTGTTCACGTGGGTCA,0.17
18,AGGCGCACGTGTTATG,0.01
19,TAGTCCACGTGGTTGA,-0.03
20,CTAGGCACGTGTTGTT,-0.13
21,TGATCCACGTGTTTTT,0.05
22,ATTGACACGTGGGACG,-0.16
23,ATTTTCACGTGAGGAC,0.53
24,AGCGTCACGTGATATT,0.35
25,AGTCTCACGTGTTATT,0.12

row,Sequence,relative binding free energy [kcal/mol]
1,GATTCCACGTGCTGGT,0.19
2,GGCGGCACGTGGGTTC,-0.08
3,TTTAGCACGTGGGGAG,-0.1
4,TTACGCACGTGGGGCG,-0.37
5,TGGTTCACGTGCGCTA,0.33
6,AGTAACACGTGTGGTT,0.03
7,TTGTACACGTGGTTCA,-0.11
8,CAGGTCACGTGTCGTG,0.04
9,CTGTTCACGTGTGTAG,0.19
10,ACGAGCACGTGGCTGG,-0.13
11,CTTTTCACGTGCGGTG,0.32
12,TGGGTCACGTGATTGA,0.08
13,AATTACACGTGTGTGT,0.08
14,AGTTTCACGTGTTGAG,0.28
15,ATGTACACGTGGGAGG,0.01
16,TGAGTCACGTGCGGCT,0.14
17,TACATCACGTGTTTGT,-0.01
18,AGAATCACGTGTATTT,0.11
19,AGTCACACGTGTGTGA,0.06
20,TTAGACACGTGAGTTC,0.26
21,TTATACACGTGGTGAC,0.07
22,TAGGTCACGTGTGCGG,-0.05
23,AGTAACACGTGGGTCT,-0.1
24,ACTAACACGTGTGTGT,0.01
25,ATCGTCACGTGTCGGA,0.16

row,Sequence,relative binding free energy [kcal/mol]
1,TCTGTCACGTGTGGGG,0.14
2,GATACCACGTGGGTTT,-0.09
3,GAGGTCACGTGAATTT,0.54
4,AATTACACGTGTTTTG,0.11
5,TGGGCCACGTGTACGG,-0.09
6,ATTGTCACGTGGGTAC,-0.01
7,GGATGCACGTGATGGA,0.15
8,TGTTTCACGTGAGGTT,0.45
9,AACTTCACGTGTGTGT,0.26
10,GGCTTCACGTGGCTTG,0.25
11,TTAGACACGTGTTGCG,0.06
12,TTTAGCACGTGTTACA,-0.16
13,TCGCGCACGTGGGAGA,0.08
14,TGGGTCACGTGATCTG,0.18
15,TTGAACACGTGTCGTG,0.05
16,GGTTCCACGTGTCTTG,0.2
17,GATATCACGTGGGCTC,0.28
18,GTGATCACGTGCGATG,0.07
19,TCGATCACGTGGTATG,0.07
20,GTGGGCACGTGCTATA,0.01
21,ATACTCACGTGGGTTA,0.08
